# PubChem BioAssay AID588342 (National Center for Advancing Translational Sciences (NCATS), 2011)
# The whole screen tested about 360,000 compounds, of which about 25,000 (6.9%) were called active. Inconclusive means that the source gave no clear call. Such entries were picked first, then a sample of the others. Calls come from the whole dose curve; as a rule, active = well fitted inhibition curve with a large enough effect; inconclusive = small, poorly fitted or top-dose-only effect; inactive = flat fitted curve, though single readings scatter. A potency beside an inconclusive call is a rough fit, not a confirmed value.
# Molecular target: Luciferin 4-monooxygenase (Photinus pyralis) (UniProt P08659)
# UniProt P08659, sequence (P08659 whole entry, looked up): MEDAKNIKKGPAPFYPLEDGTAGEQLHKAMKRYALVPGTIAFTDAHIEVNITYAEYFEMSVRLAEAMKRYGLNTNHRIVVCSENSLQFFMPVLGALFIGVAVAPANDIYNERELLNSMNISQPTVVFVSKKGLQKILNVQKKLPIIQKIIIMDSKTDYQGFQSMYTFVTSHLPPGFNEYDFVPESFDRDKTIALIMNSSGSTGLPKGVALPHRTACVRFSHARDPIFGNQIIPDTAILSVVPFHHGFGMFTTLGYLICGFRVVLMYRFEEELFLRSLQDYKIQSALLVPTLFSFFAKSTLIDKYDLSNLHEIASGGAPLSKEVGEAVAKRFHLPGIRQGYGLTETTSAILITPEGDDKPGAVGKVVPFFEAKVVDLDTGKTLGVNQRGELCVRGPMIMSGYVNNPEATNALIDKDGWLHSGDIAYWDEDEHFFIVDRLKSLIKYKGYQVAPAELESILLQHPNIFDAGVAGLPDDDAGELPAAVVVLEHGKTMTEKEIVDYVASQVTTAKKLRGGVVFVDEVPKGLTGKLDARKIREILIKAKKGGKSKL
# Experiment: qHTS profiling assay for firefly luciferase inhibitor/activator using purifed enzyme and Km concentrations of substrates (counterscreen for miR-21 project); note: nearly all actives have a fitted effect of over 55% in size
# Settings: purified FLuc, luminescence inhibition; series mostly up to 57.5 µM
# In short: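 Purified P. pyralis luciferase, 10 nM final, with Km-level 10 uM D-luciferin and 10 uM ATP in 50 mM Tris acetate pH 7.5, 10 mM Mg acetate, 0.01% Tween-20, 0.05% BSA; 6-point qHTS titration about 60 µM downward; luminescence read.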
# Potency is the fitted concentration of half-maximal effect; tags give direction and shape of the fitted curve.
row,SMILES,Potency
1,CCOc1cccc(C(=O)NC(=S)Nc2cccc(C)c2)c1,"inconclusive: 10.7 µM [inhibitor, partial curve]"
2,COc1cccc(-c2csc(NC(=O)C3CC3)n2)c1,active: 10.7 µM
3,COc1ccc(N(C(=O)c2snc(C(N)=O)c2N)C(C(=O)NC2CCCCC2)c2ccc(C)o2)cc1 (centres undefined),inactive
4,O=C1OCCC1Sc1nnc(-c2cccc(Br)c2)o1 (centres undefined),"inconclusive: 16.9 µM [inhibitor, partial curve]"
5,COc1ccc(NC(=O)c2ccc3nc[nH]c3c2)c(OC)c1,"inconclusive: 37.9 µM [inhibitor, partial curve, poor fit]"
6,O=C(NCc1ccncc1)c1ccccc1Nc1ccc(SC(F)F)cc1,"inconclusive: 37.9 µM [inhibitor, partial curve, poor fit]"
7,O=c1c2cc(-c3ccccc3)sc2ncn1-n1cccc1,inactive
8,Cc1ccnc(NC(=O)c2ccc3c(c2)C(=O)N(CCC(C)C)C3=O)c1,"inconclusive: 7.57 µM [inhibitor, partial curve]"
9,Cc1ccc(Cl)cc1N(CC(=O)NCc1ccccc1)S(C)(=O)=O,inactive
10,Cc1ccc(-n2nc3c(=O)n(CCCC(=O)NCC(C)c4ccccc4)nc(C)c3c2C)cc1 (centres undefined),"inconclusive: 30.1 µM [inhibitor, partial curve, poor fit]"
11,COc1ccccc1C1CCN(c2cc(O)ccc2[N+](=O)[O-])CC1,inactive
12,COCCNC(=O)C1CCN(C(=O)c2cc3sccc3n2Cc2ccc(Cl)cc2)CC1,inactive
13,Cc1cccc(NC(=O)N2CCc3ccccc3C2)c1C,"inconclusive: 23.9 µM [inhibitor, single point]"
14,CC(C)(O)C#Cc1ccc(C(=O)Nc2ccc3c(c2)OCO3)s1,active: 8.49 µM
15,CC(=O)c1ccc(N2CCCCCC2)c(F)c1,"inconclusive: 16.9 µM [inhibitor, partial curve]"
16,N#Cc1ccccc1CN1C(=O)c2ccccc2S1(=O)=O,inactive
17,O=C(NCc1cccs1)c1cc(-c2ccccc2)on1,"inconclusive: 1.51 µM [inhibitor, partial curve, poor fit]"
18,OCCSc1nc(-c2ccccc2)nc2ccc(F)cc12,"inconclusive: 37.9 µM [inhibitor, partial curve, poor fit]"
19,Brc1ccc(-c2noc(C3CCCCC3)n2)cc1,active: 6.75 µM
20,Clc1ccc(-c2nnc(C3CCCCC3)o2)cc1,"inconclusive: 19 µM [inhibitor, single point]"
21,Cc1ccc(NC(=O)Cc2sc(C)nc2-c2ccc(C)cc2)cc1,"inconclusive: 21.3 µM [inhibitor, partial curve, poor fit]"
22,CCOc1ccccc1/C=C/c1cc(C(=O)O)c2ccccc2n1,active: 13.5 µM
23,COc1ccccc1CC(=O)Nc1cc(OC)c(NC(=O)c2ccccc2)cc1OC,inactive
24,COc1cccc(/C=N/c2nc3ccccc3n2C)c1O,"inconclusive: 21.3 µM [inhibitor, single point]"
25,CCOC(=O)Cc1ccc(NC(=O)N2CCSc3ccccc32)cc1,inactive

row,SMILES,Potency
1,O=C(CCN1C(=O)c2ccccc2C1=O)Nc1ccc(-c2nc3ccccc3s2)cc1,"inconclusive: 0.849 µM [inhibitor, partial curve, poor fit]"
2,Cc1ccc2sc(NNC(=O)c3cc(=O)c4ccccc4o3)nc2c1C,active: 9.53 µM
3,COC(=O)c1noc(-c2ccc(OC)cc2)n1,"inconclusive: 26.9 µM [inhibitor, partial curve, poor fit]"
4,COc1ccccc1/C=N/NC(=O)c1ccc(-c2ccccc2)cc1,"inconclusive: 30.1 µM [inhibitor, partial curve, poor fit]"
5,c1ccc2c(CCNc3ncnc4nc[nH]c34)c[nH]c2c1,"inconclusive: 23.9 µM [inhibitor, partial curve, poor fit]"
6,CN(CCCN1CCCCC1)C(=O)c1cc(COc2ccc(F)cc2F)on1,inactive
7,Cn1c(C(=O)N2COCC2(C)C)cc2c(=O)n3ccccc3nc21,"inconclusive: 23.9 µM [inhibitor, partial curve, poor fit]"
8,COc1ccc(/C=C/C(=O)ONC2=NCCCCC2)cc1OC,"inconclusive: 37.9 µM [inhibitor, partial curve, poor fit]"
9,CCC(=O)N1c2ccccc2CC1C(=O)NCCc1cc(OC)c(OC)c(OC)c1 (centres undefined),inactive
10,CCCC1=NN2C(=N)/C(=C\c3cc(C)n(Cc4ccccc4)c3C)C(=O)N=C2S1,"inconclusive: 23.9 µM [inhibitor, partial curve, poor fit]"
11,C/C(=N/NC(=O)c1cccc(N2CCCC2=O)c1)c1ccc(Br)cc1,active: 15.1 µM
12,CCSc1ncc(Cl)c(C(=O)Nc2nc3ccc(S(C)(=O)=O)cc3s2)n1,"inconclusive: 3.01 µM [inhibitor, partial curve, poor fit]"
13,CCOC(=O)N/N=C\c1sccc1C,"inconclusive: 10.7 µM [inhibitor, partial curve, poor fit]"
14,COc1cc(/C=N/NC(=O)CC23CC4CC(CC(C4)C2)C3)cc(Br)c1OCC(=O)N(C)C,"inconclusive: 5.36 µM [inhibitor, partial curve, poor fit]"
15,N#C/C(=C(/O)COC(=O)Cc1c[nH]c2ccccc12)c1nc2ccccc2[nH]1,active: 15.1 µM
16,O=C(N/N=C/C=C/c1ccccc1[N+](=O)[O-])c1cc(-c2cccnc2)nc2ccccc12,"inconclusive: 6.01 µM [inhibitor, full curve]"
17,CC(=O)C1(C)N(O)C(C)(C)C(c2cccs2)=[N+]1[O-] (centres undefined),active: 0.301 µM
18,CCN1CCN(CCCOc2ccc(-c3ccccc3)cc2)CC1,"inconclusive: 26.9 µM [inhibitor, partial curve]"
19,O=C(CSc1nc2sc3c(c2c(=O)[nH]1)CCCC3)NCCO,"inconclusive: 23.9 µM [inhibitor, single point]"
20,Cc1ccccc1CCNC(=O)c1ccc2c(c1)nc1n2CCOC1,active: 6.01 µM
21,O=C(c1ccc(F)cc1)n1ccc(-c2cnc(-c3ccccc3)s2)n1,"inconclusive: 19 µM [inhibitor, partial curve]"
22,O=C(Nc1ccccc1)O[C@@H]1C[C@H]2CCC(=O)N3CC[C@@H](C1)[C@@H]23,active: 21.3 µM
23,CCCCN(CCCC)CCCNC(=O)Cn1cc2c(n1)-c1c(oc(C(=O)N3CCCC3)c1C)CC2,inactive
24,Cn1c(=O)c2c([nH]c(=S)n2CCCc2ccccc2)n(C)c1=O,"inconclusive: 26.9 µM [inhibitor, single point]"
25,CC(C)c1onc(C(=O)Nc2cccc(O)c2)c1[N+](=O)[O-],"inconclusive: 26.9 µM [inhibitor, partial curve, poor fit]"

row,SMILES,Potency
1,O=C(NC1CCCCC1)N1CCN(C(c2ccccc2)c2ccccc2)CC1,inactive
2,Cc1nnc(NC(=O)c2cccc(Br)c2)s1,"inconclusive: 21.3 µM [inhibitor, partial curve]"
3,CCOC(=O)c1c(C)[nH]c(C)c1S(=O)(=O)N1CCC(C(=O)Nc2ccc(OCC)cc2)CC1,inactive
4,CCc1ccc(-c2cc(C(=O)NN3CCOCC3)c3ccccc3n2)s1,active: 7.57 µM
5,Cn1c(=O)c(C(=O)Nc2ccccn2)c(O)c2ccccc21,active: 4.78 µM
6,CCCC(=O)Nc1cc2nn(-c3ccccc3)nc2cc1C,"inconclusive: 0.953 µM [inhibitor, full curve]"
7,CCCCNC(=O)c1ccc(NC(=O)CC2SC(N3CCCC3)=NC2=O)cc1 (centres undefined),inactive
8,c1ccc(-c2csc(Nc3cccnc3)n2)cc1,active: 10.7 µM
9,O=C(N/C(=C/c1cccc([N+](=O)[O-])c1)C(=O)N1CCCCC1)c1ccco1,inactive
10,COc1ccc(C(=O)NCC(c2ccco2)S(=O)(=O)c2ccc(F)cc2)cc1 (centres undefined),inactive
11,Cc1ccc(C)c(Cn2nnc3c(=O)[nH]c(C4CCCN(C(=O)c5cccs5)C4)nc32)c1 (centres undefined),inactive
12,CC1(C)O[C@H]2[C@@H](O1)[C@@H](C(=O)Nc1ccccc1C(F)(F)F)O[C@@H]1OC(C)(C)O[C@@H]12,inactive
13,Cc1ccccc1CNC(=O)C(C)N(c1ccccc1)S(C)(=O)=O (centres undefined),inactive
14,O=C(COc1ccc(Cl)cc1)Nc1cnn(Cc2c(Cl)cccc2Cl)c1,"inconclusive: 23.9 µM [inhibitor, partial curve, poor fit]"
15,CC(=O)c1cccc(NC(=O)CCc2nnc3ccc(NCc4ccc5c(c4)OCO5)nn23)c1,inactive
16,Cc1csc(=O)n1CC(=O)Nc1ccc(C(C)C)cc1,"inconclusive: 26.9 µM [inhibitor, single point]"
17,Nc1cccc2c1C(=O)N(C(=O)/C=C/c1cccc(Br)c1)C2=O,"inconclusive: 23.9 µM [inhibitor, partial curve]"
18,O=C1CC(Sc2nnnn2C2CCCCC2)C(=O)N1c1ccccc1 (centres undefined),"inconclusive: 23.9 µM [inhibitor, single point]"
19,N#Cc1nc(-c2ccc(F)cc2)oc1NCc1ccccc1,"inconclusive: 26.9 µM [inhibitor, single point]"
20,CC(C)NC(=S)N/N=C/c1sc(N2CCCCC2)nc1-c1cccs1,active: 3.01 µM
21,CC(=O)c1cccc(NC(=O)CSc2nc(=O)n(Cc3ccco3)c3c2CCC3)c1,inactive
22,Cc1cc(C)nc(NC(=O)CCC2CCCC2)c1,"inconclusive: 37.9 µM [inhibitor, single point]"
23,Cc1ccc(C(=O)N/N=c2\sc3ccccc3n2C)cc1,active: 21.3 µM
24,COC(=O)c1ccc(-c2c(-c3ccccc3)ncc3cc(OC)c(OC)cc23)cc1,"inconclusive: 30.1 µM [inhibitor, partial curve, poor fit]"
